# ± gives the standard deviation of the averaged measurements. The list shows a part of the results.
# System: PfAP2-EXP AP2 domain (GST-tagged)
# Experiment: gcPBM binding intensity (ln(normalized median fluorescence intensity)); higher = stronger DNA binding
# Summary of the method: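 DNA-binding domains from P. falciparum, fused to GST and produced in E. coli, were put on an Agilent 4 × 180k double-stranded probe array for 1 h in 1× PBS holding 1% milk, 0.2 mg/ml BSA, 0.5% salmon testes DNA and 0.03% Triton X-100. Probes were primer-extended, 36 bp long and drawn from intergenic genomic regions, with negative controls included. After Alexa488 anti-GST antibody detection and a 488 nm scan, binding intensity was set as the highest Masliner-normalised natural-log median intensity across replicate spots of either probe orientation.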
row,Sequence,gcPBM binding intensity (ln)
1,TAGAAGCAGAAACACACACACATACATACACATACA [CACACA_site1467],8.8 ± 0.41
2,TCTATGTAGTTTTTATGTACTAAATAAATAAATAAA [XGTACX_site2599],8.24 ± 0.35
3,TAAATGTCCTTATTTGCACACACACCGATAAGAAAT [CACACA_site5723],8.65 ± 0.33
4,ACTATTAACAGTGTAGTGCAAAAAGGTTAATTATTA,8.82 ± 0.17
5,TTTTCAATATATATTTGTACTTTATTTTATGATATT [GTGCAC_negctrl_site732],8.73 ± 0.44
6,GCATTCATTTTTAATACACACAAAAAAAAAATAAAA [CACACA_site2408],8.43 ± 0.41
7,TACATATATATTTGTTCACACACACCCAAAAAAAAA [CACACA_site8788],8.65 ± 0.52
8,TACGCACAAAAATATACACACACACCGATATATTTA [CACACA_site9213],8.5 ± 0.41
9,AGACATTTTTAAGCAAAACATTCATCATCTTATAAT [CACACA_negctrl_site1539],8.63 ± 0.43
10,TATTTTACACATTTACGTACATAAATATATATATAT [XGTACX_site8788],9.62 ± 0.23
11,CTAACAACCAAACGCACACACACAAAAAAAAAAATA [CACACA_site400],8.48 ± 0.42
12,TTTGAAATGATATATAAACACACATATATATATATA [CACACA_site9170],10.3 ± 0.4
13,TATTAAAAGGTGAGTACACACATATATGCGTATATA [CACACA_site2102],8.68 ± 0.45
14,AACAACTATTAATTTACACACATGTATATATCTTAC [CACACA_site7459],8.71 ± 0.47
15,ATATTGAATTCCAACACATGCAAAACTTTCGGTTTT [TGCATGCA_site485],8.8 ± 0.38
16,ATATATATATATAATAGTACATATATTTTGAAAGAT [XGTACX_site5800],9.75 ± 0.27
17,TATGTGTGAAAAAAATGTACATATATATAAATTATA [XGTACX_site7202],8.78 ± 0.39
18,AACTGTAAAAAATATAAACACACATAGAAATATATA [CACACA_site8002],8.82 ± 0.29
19,AAAGAAATGAAATATACACACATACATATATACATA [CACACA_site9335],8.42 ± 0.45
20,GTTCTGTAAATACGTGCACACACAAATCACAAATGT [CACACA_site7999],9.12 ± 0.028
21,AATTAAAAAAGTAATTAACACACAATAATGTAATGC [CACACA_site9388],8.6 ± 0.34
22,TTTTTTTTCTTTTTTTGTACATAATAATATATAAAT [XGTACX_site6778],8.36 ± 0.45
23,GATATATTTTATATATGTACATACAATGGTAAATAT [XGTACX_site2759],8.66 ± 0.42

row,Sequence,gcPBM binding intensity (ln)
1,AAAAATGAAAAATGAAAAATGAAAAATGAAAAATAA [CACACA_negctrl_site695],8.73 ± 0.37
2,TATTCTTACAAAAGTAGTACAATCATTCATATTTTT [XGTACX_site631],8.54 ± 0.34
3,TATATATATATAATTGTGCACATAATTTTAAACCAA,10.1 ± 0.22
4,TAGTTTCAAGTAGGACGTACATATAAAAGGATTTTT [XGTACX_site7136],8.71 ± 0.36
5,ATATATCAAGGGAGTGAATGTTATGCATATGAATAT [TGCATGCA_negctrl_site573],8.71 ± 0.42
6,AATAAATTAAATAAAAATGTTTAACATAAAATATGA [GTGCAC_negctrl_site373],8.36 ± 0.35
7,GGATATTATATAAAGTGTACAAGACAAATATATACA [XGTACX_site8173],8.66 ± 0.33
8,AAATTAACAAACTGTAGTACTAACAATATATACAAA [XGTACX_site1772],8.79 ± 0.45
9,ATTATAATTATCAAGGTGCGTGTATTATAATAAATA [GTGCAC_site9917],8.69 ± 0.26
10,TAATATAATAATAATTGTACTTTTCATAGTGTAATT [XGTACX_site8152],7.95 ± 0.27
11,AAAAAAAAAAAACACACACACAAAATAAACAAACAA [CACACA_site2721],8.6 ± 0.47
12,AAGAAAAAGACTTCATGAAAAAGAATTTTTTTAATT [TGCATGCA_negctrl_site473],8.06 ± 0.57
13,AATTTTCCATAGATTGTGCACAAATTTTTATTTTGT,8.84 ± 0.26
14,TTATAATCAATGAATACACACATATATTTAATTAAT [CACACA_site3613],8.21 ± 0.4
15,TAATATTATTTTTCAGTGCAATATAACCTTAGAATT [GTGCAC_site9417],8.38 ± 0.32
16,ATATATTTTTTTTTTATTTTATTATTATAATTTATC [XGTACX_negctrl_site16],8.32 ± 0.43
17,AAACAAAACAACTAAGTGCATAAAAATAAAATAAAT,8.96 ± 0.32
18,ATTTTATTTTTTTGAAGTACGAATTCCGAGAAGAAA [XGTACX_site43],8.65 ± 0.45
19,TATAGTTCTTCTATTTGTACATATATTATTATTTAA [XGTACX_site895],8.57 ± 0.28
20,TATTCAAAAATATAAACAATGAAACAGTATAATATG [CACACA_negctrl_site1482],8.59 ± 0.47
21,AATGTGCACACGCGTACACACAAAAAAAGAAAAAAA [CACACA_site7031],8.57 ± 0.42
22,TATTATTTGAGTAGTTGTACTCATTAATATATAAAA [XGTACX_site3468],8.11 ± 0.32
